Among all 44,000 compounds or so, about 340 (0.77%) were called active. Inconclusive results (about 5%) are left out. The call rests on the fitted dose curve; in most records, active means well fitted inhibition curve with a large enough effect; inconclusive means small, poorly fitted or top-dose-only effect; inactive means flat fitted curve, though single readings scatter. Some of the results follow.
Experiment: Acumen qHTS Assay for Inhibitors of the mTORC1 Signaling Pathway in MEF (Tsc2-/-, p53-/-) Cells: Sytravon;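 further: plate controls were DMSO for no effect and rapamycin for full effect; nearly all actives have a fitted effect of over 50% in size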
Conditions: phospho-rpS6 immunofluorescence/PI, 24 h; series mostly up to 38.3 µM; activity change, negative = inhibition: at the top concentration
In short: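 Read-out: phospho-S6 Alexa-488 intensity over PI intensity per well, scored as % active cells using thresholds from rapamycin (7.5 nM) and DMSO controls. Tsc2-/-, p53-/- MEFs exposed to compound for 24 h; PI cell count recorded as viability.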

Activity change, negative = inhibition, inactive:
COc1ccc(NC(=O)Nc2ccccc2OCc2cc(=O)n3ccccc3n2)c(OC)c1 0%, Cc1ccccc1CNC(=O)C(=O)NCC(c1cccs1)S(=O)(=O)c1ccc(Cl)cc1 (stereo not drawn) 1.63%, O=C(CN1C(=O)C2CCCCN2c2ccc(C(=O)N3CCCC3)cc21)NCc1cccc(F)c1 (stereo not drawn) 0.873%, COCCN1Cc2cccc(C(=O)Nc3ccc(Cl)cc3Cl)c2C1=O -8.63%, CCN(CC)c1ccc(NC(=O)CN2C(=O)c3cccnc3Sc3ccccc32)c(C)c1 -1%, CC(=O)N1CCc2c(sc3c2c(=O)n(CCc2ccccc2)c(=O)n3Cc2cccc(C)c2)C1 -0.0801%, CCOc1cc(C2C(C(=O)OC)=C(C)NC3=C2C(=O)c2ccccc23)c(Br)cc1O (stereo not drawn) -5.84%, CC(=O)N1c2ccc(S(=O)(=O)N3CCN(c4cccc(Cl)c4)CC3)cc2CC1C (stereo not drawn) -8.23%, CC(C)NC(=O)Cn1nc(N2CCN(c3ccccc3)CC2)ccc1=O 5.64%, COc1ccc2oc(-c3ccc(C)c(NC(=O)CSc4ccc(Cl)cc4)c3)nc2c1 -10.4%, Cc1ccc(-c2c3c(=O)n(C)c(=O)n(C)c3cn2-c2cc(C)ccc2O)cc1 -0.728%, COc1ccc(N2CCN(C3C(=O)c4ccccc4N3C(C)=O)CC2)cc1 (stereo not drawn) 7.16%, Cc1c(Cl)cccc1NC(=O)CSc1nc(=O)n(Cc2cccnc2)c2c1CCC2 -2.95%, Cc1c(Cl)cccc1-n1ncc(C(=O)Nc2ccc(F)cc2F)c1C1CCN(C(=O)OC(C)(C)C)CC1 -3.24%, Cc1cc(Cl)ccc1NS(=O)(=O)c1ccc2c(c1)CC(C)N2C(=O)C1CCC1 (stereo not drawn) 0%, O=C1CC(c2nc(-c3ccccc3)no2)CN1c1ccc2c(c1)OCCO2 (stereo not drawn) -8.37%, COC(=O)C1CCN(C(c2ccccc2)c2sc3nc(-c4ccco4)nn3c2O)CC1 (stereo not drawn) -1.42%, Cc1ccc(Cn2cc(S(=O)(=O)c3ccc(C)cc3)c(=O)c3cc(F)c(N4CCCC4)cc32)cc1 -0.406%, Cc1ccc(CNC(=O)C2CCN(C(=O)c3cnn(-c4ccccc4)c3-n3cccc3)CC2)cc1 1.65%, CCOc1cccc(NC(=O)c2ccc(F)c(S(=O)(=O)N(CC)c3cccc(C)c3)c2)c1 1.48%, COc1ccc2c(c1)CC(C(=O)NCCN1CCN(c3cccc(C)c3C)CC1)CO2 (stereo not drawn) 1.43%, CC(C)CCNC(=O)Nc1cc(C(=O)NCc2cccc(F)c2)ccc1N1CCCC1 4.28%, COc1ccc2c(c1)c1c(c(=O)n(Cc3ccccc3)c(=O)n1CC(=O)Nc1ccc(C)cc1C)n2C -1.49%, O=C(C1CCN(S(=O)(=O)Cc2ccccc2)CC1)N1CCN(c2cccc(Cl)c2)CC1 -1.32%, O=C(Nc1nnc(S(=O)(=O)N2CCCCCC2)s1)c1ccccc1Br 7.26%, Cc1ccc(NC(=O)C2CCCN(S(=O)(=O)c3c(C)n[nH]c3C)C2)cc1C (stereo not drawn) -11.3%, CSc1cccc(NC(=O)C2CCN(S(=O)(=O)c3ccc4[nH]c5c(c4c3)CCCCC5)CC2)c1 -1.8%, CCOC(=O)c1ccc(CN(Cc2ccc(C)cc2)S(=O)(=O)c2ccc(NC(C)=O)cc2)cc1 -18.2%, COCCCNC(=O)CN1C(=O)CSc2ccc(S(=O)(=O)N3CCOCC3)cc21 -3.53%, CCn1cc2nc(SCc3ccc(F)cc3)n(Cc3ccc(Cl)cc3)c(=O)c2n1 6.59%, CCCS(=O)(=O)N1CC(=O)N(c2ccc(Cl)cc2)C(C)(C(=O)NC2CCCC2)C1 (stereo not drawn) -1.43%, CC(=O)Nc1ccc(Nc2nnc(-c3ccc(C)c(S(N)(=O)=O)c3)c3ccccc23)cc1 5.22%, Cc1ccc(NC(=O)c2oc3ccc(S(=O)(=O)N4CCC5(CC4)OCCO5)cc3c2C)c(C)c1 -4.41%, COCCn1c(SCC(=O)Nc2ccc(C(F)(F)F)cc2)nc2c([nH]c3ccccc32)c1=O 1.58%, Cc1ccc(NC(=O)C(=O)NCCc2csc3nc(-c4ccccc4C)nn23)cc1Cl -0.892%, O=C(NCc1ccc2c(c1)CCN2C(=O)c1ccccc1)c1ccco1 0.566%, O=C(Nc1ccc(S(=O)(=O)N(Cc2ccccc2)c2ccccc2)cc1)c1ccc([N+](=O)[O-])cc1 -3.56%, COc1cccc(N2CCN(C(=O)c3cc4c(=O)n(Cc5ccco5)ccc4nc3C)CC2)c1 -7.39%, O=C(NCc1ccccc1Cl)c1ccc(NC(=O)N2CCSc3ncccc32)cc1 -3.05%, CCC1=C(c2ccc(C)cc2)S(=O)(=O)N=C1N1CCC(C(=O)NCc2ccccc2Cl)CC1 1.17%, CCOC(=O)c1cc(S(=O)(=O)N2CCN(c3ccc(F)cc3)CC2)[nH]n1 -2.62%, CCCN(CCC)CCNC(=O)C1CCCN(S(=O)(=O)c2cccc3nsnc23)C1 (stereo not drawn) -0.457%, CCCCCOC(=O)c1ccc(OC(=O)c2sc3ncn(Cc4cccc(F)c4)c(=O)c3c2C)cc1 0.681%, CCOc1cc2[nH]c(=O)n(CCCC(=O)N3CCN(c4cccc(Cl)c4)CC3)c(=O)c2cc1OCC 0.376%, Cc1nc(SCc2ccc(Cl)cc2)c(C#N)c(C)c1Cl 2.38%, COc1ccc(OC)c(CNc2sc3c(c2C(=O)Nc2cc(OC)ccc2OC)CCCC3)c1 -0.118%, COc1ccc(OC)c(NC(=O)N2CCC(CN3CCCCC3)CC2)c1 2.95%, CC(C)Cn1cc(C(=O)N2CCN(c3cccc(Cl)c3)CC2)c2c3ccccc3n(C)c2c1=O 5.97%, CCOC(=O)c1cnc2ccc(OCC)cc2c1Nc1cc(Cl)c(OC)cc1OC -19.1%, CC(=O)N1CCCc2cc(S(=O)(=O)N3CCCC(C(=O)Nc4cccc(Cl)c4C)C3)ccc21 (stereo not drawn) -0.644%, Cc1ccc(C)c(OC(=O)CSc2nnc(-c3ccc4c(c3)OCO4)o2)c1 3.55%, COC(=O)c1ccc(Cn2c(SCC(=O)N(C)c3ccccc3)nc3ccccc32)cc1 0%, CCOc1cc(C(=O)Nc2ccc(S(=O)(=O)Nc3cc(OC)nc(OC)n3)cc2)cc(OCC)c1OCC 0.339%, O=C(CCCn1c(=O)c2ccccc2n(Cc2cccc(F)c2)c1=O)NCc1ccccc1Cl -16.5%, O=C(Nc1ccc(S(=O)(=O)N(Cc2ccccc2)c2ccccc2)cc1)c1ccc(F)cc1 -6.73%, O=C(CCc1ccccc1)N1CCc2c([nH]c3ccccc23)C1c1ccc(F)cc1 (stereo not drawn) 0.0362%, CCCCNC(=O)c1sc2ncccc2c1-n1cccc1 -0.55%, Cc1cc2oc(C(=O)Nc3c(C)n(C)n(-c4ccccc4)c3=O)cc(=O)c2cc1C 0.167%, COc1ccc(-c2cc(C(=O)Nc3c(C)n(C)n(-c4ccccc4)c3=O)no2)cc1 1.77%, CN1C(=O)c2ccccc2Sc2ccc(NC(=O)c3ccc(C#N)cc3)cc21 -6%, COC(=O)C(CCSC)NC(=O)c1cc2c(n(-c3ccccc3)c1=O)CC(C)(C)CC2=O (stereo not drawn) -0.0536%, CCOC(=O)Cn1c(=O)n(-c2ccc(Cl)cc2)c2nc(-c3ccc(Cl)cc3)nc(C(N)=O)c21 0.251%, Cc1nn(C(C)(C)C)c(OC(=O)c2c(F)cccc2F)c1Sc1ccccc1 -3.53%, COc1cc(CNc2ccc3[nH]c(=O)[nH]c3c2)cc(Cl)c1OCc1ccc(F)cc1 0.475%, COc1ccc(NC(=O)CN(c2ccc(C)cc2)S(=O)(=O)c2cccs2)cc1 1.1%, Cc1cccc(NS(=O)(=O)c2ccc3c(c2)CCCN3C(=O)C2CCC2)c1C -17.7%, Cc1ccc2c(=O)cc(C(=O)Nc3nc4ccc(Cl)cc4s3)oc2c1 -3.33%, O=C(Nc1ccc(C(=O)OCc2cc(=O)n3c4c(sc3n2)CCCC4)cc1)c1cccc(F)c1 0%, Cc1cccc(C(=O)Nc2ccccc2OCc2cc(=O)n3c(C)csc3n2)c1 6.3%, COc1ccc(CCNc2nc3c(c(=O)n(C)c(=O)n3C)n2Cc2ccccc2Cl)cc1OC -7.92%, Cc1csc2nc(-c3cccc(NC(=O)c4c(F)cccc4F)c3)cn12 2.68%, O=C(Cn1cc(S(=O)(=O)Cc2ccccc2F)c2ccccc21)NCc1ccccc1 2.25%, CCOc1ccc(Nc2c3c(nc4nncn24)CCC3)cc1 -13.8%, O=C(NCCc1ccccc1)c1cc(-c2ccc(Cl)c(Cl)c2)on1 -21.5%, Cc1c(CC(=O)NCc2ccccc2Cl)c(=O)oc2cc(O)ccc12 1.64%, COc1cc(OC)cc(N2C(=O)CSC23C(=O)Nc2ccccc23)c1 (stereo not drawn) -1.12%, COc1ccc(C(=O)OCc2cc(=O)n3nc(C4CC4)sc3n2)cc1OC -9.14%, CCCNC(=O)CSc1cn(CC(=O)N2CCCCCC2)c2ccccc12 -5.8%, O=C(CSc1nc2sc3c(c2c(=O)[nH]1)CCCC3)Nc1ccccc1F 1.02%, CCOc1ccc(-c2nnc(SCC(=O)Nc3cccc(Cl)c3C)o2)cc1 -0.131%, CC(C)Oc1ccc(CNS(=O)(=O)c2ccc(-c3cc(C(F)(F)F)on3)s2)cc1 -2.52%, Cc1ccc(NC(=O)CCn2cnc3onc(-c4ccc(F)cc4)c3c2=O)c(Br)c1 -6.19%, Cc1ccc2nc(CN3CCN(S(=O)(=O)c4ccc(F)cc4)CC3)oc2c1 0%, Cc1ccc2oc(C(=O)Nc3ccc(S(=O)(=O)Nc4nc(C)cc(C)n4)cc3)cc(=O)c2c1 4.51%, Cc1cc2c(cc1S(=O)(=O)Nc1cccc(Cl)c1C)OCCN2C -10%, COc1ccc(-c2nc3ccccc3o2)cc1NC(=O)c1ccc(-c2cccc(Cl)c2C)o1 -3.66%, Cc1c(-c2nc(-c3ccc4c(c3)OCO4)no2)nnn1-c1cccc(C(F)(F)F)c1 7.3%, Cc1ccc(Cl)cc1N1CCN(C(=O)COCc2cc(-c3ccc4c(c3)OCO4)on2)CC1 0.165%, Cc1ccc(CNC(=O)C2CCCN(Cc3nc(-c4cccc(C)c4)oc3C)C2)cc1 (stereo not drawn) -11.6%, COc1cccc(NC(=O)C2CCN(c3nnc(-n4c(C)ccc4C)s3)CC2)c1 -5.36%, Cc1ccc(-c2nc3c(c(SCC(=O)Nc4cccc(C(=O)O)c4)n2)Cc2cccc(C)c2O3)cc1 0.246%, CCN(CC)CCNC(=O)c1ccc2c(=O)n3nc(Nc4ccccc4)sc3nc2c1 -4.99%, CC1=C(C(=O)Nc2cccc(C(F)(F)F)c2)C2(CCN(C(C)C)CC2)OC1=O -2.47%
